Results published in publication PMC9911399, “Two distinct binding modes provide the RNA-binding protein RbFox with extraordinary sequence specificity”.
Substitutions are numbered along the chain they refer to; changes in the protein carry UniProt numbers. Some of the results follow.

B1: GUGUCGU (DNA:RNA)
RNA: GGGAGACCGGAAUUCAGAUUGUCCGUGUCGUUUAAAUCCCGUCGUAGCCACCA
DNA 1: CAATCTGAATTCCGGTCTCCC
DNA 2: TGGTGGCTACGACGGGATT
B2: AAAUAAC (DNA:RNA)
RNA: B1 RNA with G25A, U26A, G27A, C29A, G30A, U31C
DNA 1: CAATCTGAATTCCGGTCTCCC
DNA 2: TGGTGGCTACGACGGGATT
B3: UCCACAG (DNA:RNA)
RNA: B1 RNA with G25U, U26C, G27C, U28A, G30A, U31G
DNA 1: CAATCTGAATTCCGGTCTCCC
DNA 2: TGGTGGCTACGACGGGATT
B4: CUCAACU (DNA:RNA)
RNA: B1 RNA with G25C, G27C, U28A, C29A, G30C
DNA 1: CAATCTGAATTCCGGTCTCCC
DNA 2: TGGTGGCTACGACGGGATT
B5: UCUAGGG (DNA:RNA)
RNA: B1 RNA with G25U, U26C, G27U, U28A, C29G, U31G
DNA 1: CAATCTGAATTCCGGTCTCCC
DNA 2: TGGTGGCTACGACGGGATT
B6: GAGAGUC (DNA:RNA)
RNA: B1 RNA with U26A, U28A, C29G, G30U, U31C
DNA 1: CAATCTGAATTCCGGTCTCCC
DNA 2: TGGTGGCTACGACGGGATT
B7: GAUAUAG (DNA:RNA)
RNA: B1 RNA with U26A, G27U, U28A, C29U, G30A, U31G
DNA 1: CAATCTGAATTCCGGTCTCCC
DNA 2: TGGTGGCTACGACGGGATT
B8: AUAAUGC (DNA:RNA)
RNA: B1 RNA with G25A, G27A, U28A, C29U, U31C
DNA 1: CAATCTGAATTCCGGTCTCCC
DNA 2: TGGTGGCTACGACGGGATT
B9: AAGAGAU (DNA:RNA)
RNA: B1 RNA with G25A, U26A, U28A, C29G, G30A
DNA 1: CAATCTGAATTCCGGTCTCCC
DNA 2: TGGTGGCTACGACGGGATT
B10: GAAUACC (DNA:RNA)
RNA: B1 RNA with U26A, G27A, C29A, G30C, U31C
DNA 1: CAATCTGAATTCCGGTCTCCC
DNA 2: TGGTGGCTACGACGGGATT
B11: CAAUCUC (DNA:RNA)
RNA: B1 RNA with G25C, U26A, G27A, G30U, U31C
DNA 1: CAATCTGAATTCCGGTCTCCC
DNA 2: TGGTGGCTACGACGGGATT
B12: UGGAGAA (DNA:RNA)
RNA: B1 RNA with G25U, U26G, U28A, C29G, G30A, U31A
DNA 1: CAATCTGAATTCCGGTCTCCC
DNA 2: TGGTGGCTACGACGGGATT
B13: AUCGAAA (DNA:RNA)
RNA: B1 RNA with G25A, G27C, U28G, C29A, G30A, U31A
DNA 1: CAATCTGAATTCCGGTCTCCC
DNA 2: TGGTGGCTACGACGGGATT
B14: GCCAACC (DNA:RNA)
RNA: B1 RNA with U26C, G27C, U28A, C29A, G30C, U31C
DNA 1: CAATCTGAATTCCGGTCTCCC
DNA 2: TGGTGGCTACGACGGGATT
B15: GGAAAUC (DNA:RNA)
RNA: B1 RNA with U26G, G27A, U28A, C29A, G30U, U31C
DNA 1: CAATCTGAATTCCGGTCTCCC
DNA 2: TGGTGGCTACGACGGGATT
B16: CGGCCUG (DNA:RNA)
RNA: B1 RNA with G25C, U26G, U28C, G30U, U31G
DNA 1: CAATCTGAATTCCGGTCTCCC
DNA 2: TGGTGGCTACGACGGGATT
B17: AAACCUA (DNA:RNA)
RNA: B1 RNA with G25A, U26A, G27A, U28C, G30U, U31A
DNA 1: CAATCTGAATTCCGGTCTCCC
DNA 2: TGGTGGCTACGACGGGATT
B18: UACUGCU (DNA:RNA)
RNA: B1 RNA with G25U, U26A, G27C, C29G, G30C
DNA 1: CAATCTGAATTCCGGTCTCCC
DNA 2: TGGTGGCTACGACGGGATT
B19: CGCUCCA (DNA:RNA)
RNA: B1 RNA with G25C, U26G, G27C, G30C, U31A
DNA 1: CAATCTGAATTCCGGTCTCCC
DNA 2: TGGTGGCTACGACGGGATT
B20: AACUGCG (DNA:RNA)
RNA: B1 RNA with G25A, U26A, G27C, C29G, G30C, U31G
DNA 1: CAATCTGAATTCCGGTCTCCC
DNA 2: TGGTGGCTACGACGGGATT
B21: CGAUCCC (DNA:RNA)
RNA: B1 RNA with G25C, U26G, G27A, G30C, U31C
DNA 1: CAATCTGAATTCCGGTCTCCC
DNA 2: TGGTGGCTACGACGGGATT
B22: UGGUAGA (DNA:RNA)
RNA: B1 RNA with G25U, U26G, C29A, U31A
DNA 1: CAATCTGAATTCCGGTCTCCC
DNA 2: TGGTGGCTACGACGGGATT
B23: GAACGAU (DNA:RNA)
RNA: B1 RNA with U26A, G27A, U28C, C29G, G30A
DNA 1: CAATCTGAATTCCGGTCTCCC
DNA 2: TGGTGGCTACGACGGGATT
B24: GCCUUGU (DNA:RNA)
RNA: B1 RNA with U26C, G27C, C29U
DNA 1: CAATCTGAATTCCGGTCTCCC
DNA 2: TGGTGGCTACGACGGGATT
B25: AAGGCUA (DNA:RNA)
RNA: B1 RNA with G25A, U26A, U28G, G30U, U31A
DNA 1: CAATCTGAATTCCGGTCTCCC
DNA 2: TGGTGGCTACGACGGGATT
B26: CGUCUGG (DNA:RNA)
RNA: B1 RNA with G25C, U26G, G27U, U28C, C29U, U31G
DNA 1: CAATCTGAATTCCGGTCTCCC
DNA 2: TGGTGGCTACGACGGGATT
B27: GCCUAGU (DNA:RNA)
RNA: B1 RNA with U26C, G27C, C29A
DNA 1: CAATCTGAATTCCGGTCTCCC
DNA 2: TGGTGGCTACGACGGGATT
B28: CCACUCA (DNA:RNA)
RNA: GGGAGACCGGAAUUCAGAUUGUCCCCACUCAUUAAAUCCCGUCGUAGCCACCA
DNA 1: CAATCTGAATTCCGGTCTCCC
DNA 2: TGGTGGCTACGACGGGATT
B29: CUGCACA (DNA:RNA)
RNA: B28 RNA with C26U, A27G, U29A
DNA 1: CAATCTGAATTCCGGTCTCCC
DNA 2: TGGTGGCTACGACGGGATT
B30: GGUCCUU (DNA:RNA)
RNA: B1 RNA with U26G, G27U, U28C, G30U
DNA 1: CAATCTGAATTCCGGTCTCCC
DNA 2: TGGTGGCTACGACGGGATT
B31: GUGUAAC (DNA:RNA)
RNA: B1 RNA with C29A, G30A, U31C
DNA 1: CAATCTGAATTCCGGTCTCCC
DNA 2: TGGTGGCTACGACGGGATT

Biological target: T1, RBFOX1 RRM RbFoxmut (Fox-RRM*) (Homo sapiens, UniProt Q9NWB1 109-208, R118D;E147R;N151S;E152T)
T1 sequence: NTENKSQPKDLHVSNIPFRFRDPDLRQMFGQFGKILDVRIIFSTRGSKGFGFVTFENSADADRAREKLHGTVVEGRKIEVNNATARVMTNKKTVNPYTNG
Assay: EMSA; HiTS-Eq, 1 nM pool, 10 min; buffer printed only for the single-RNA assays: 10 mM Tris pH 7.5, 150 mM NaCl, 3.4 mM EDTA, 0.001% NP-40, 30 C
Conditions: tags: His6 N-terminal (pET28a); label: 5' 32P
Method in brief: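 Purified RbFox RRM, wild type or mutant, was incubated for 10 min in 50 µL with 1 nM of a 5′-radiolabelled RNA pool carrying 7 randomized nucleotides, whose flanks were annealed to DNA oligonucleotides, over a series of increasing protein concentrations. Unbound RNA was resolved on 8% native PAGE, cut out, reverse-transcribed, barcoded by PCR and sequenced on an Illumina HiSeq 2500. Relative association constants were derived from changes in read counts for each RNA species versus the control reaction and normalised to the cognate motif.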

Binder | binding signal
B1 | 0.164 KA relative to UGCAUGU
B2 | 0.0842 KA relative to UGCAUGU
B3 | 0.0955 KA relative to UGCAUGU
B4 | 0.104 KA relative to UGCAUGU
B5 | 0.0945 KA relative to UGCAUGU
B6 | 0.0957 KA relative to UGCAUGU
B7 | 0.114 KA relative to UGCAUGU
B8 | 0.0927 KA relative to UGCAUGU
B9 | 0.079 KA relative to UGCAUGU
B10 | 0.0425 KA relative to UGCAUGU
B11 | 0.0604 KA relative to UGCAUGU
B12 | 0.0999 KA relative to UGCAUGU
B13 | 0.0923 KA relative to UGCAUGU
B14 | 0.0428 KA relative to UGCAUGU
B15 | 0.0872 KA relative to UGCAUGU
B16 | 0.266 KA relative to UGCAUGU

Binder | binding signal
B17 | 0.0902 KA relative to UGCAUGU
B18 | 0.109 KA relative to UGCAUGU
B19 | 0.0681 KA relative to UGCAUGU
B20 | 0.0952 KA relative to UGCAUGU
B21 | 0.0671 KA relative to UGCAUGU
B22 | 0.128 KA relative to UGCAUGU
B23 | 0.166 KA relative to UGCAUGU
B24 | 0.714 KA relative to UGCAUGU
B25 | 0.12 KA relative to UGCAUGU
B26 | 0.128 KA relative to UGCAUGU
B27 | 0.112 KA relative to UGCAUGU
B28 | 0.118 KA relative to UGCAUGU
B29 | 0.0799 KA relative to UGCAUGU
B30 | 0.0718 KA relative to UGCAUGU
B31 | 0.0733 KA relative to UGCAUGU
